# Out of some 310,000 compounds screened, about 14,000 (4.5%) showed an effect of 50% or more. The effect is printed as a negative number. The list shows a part of the results.
# Target: human ether-à-go-go-related gene (hERG) potassium channel (human, UniProt Q12809)
# Assay: primary screen, population patch clamp on CHO cells stably expressing hERG
# 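Further: peak tail current of the secondary pulse compared with the same well before compound.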
# Chain of human ether-à-go-go-related gene (hERG) potassium channel (Q12809 whole entry, looked up): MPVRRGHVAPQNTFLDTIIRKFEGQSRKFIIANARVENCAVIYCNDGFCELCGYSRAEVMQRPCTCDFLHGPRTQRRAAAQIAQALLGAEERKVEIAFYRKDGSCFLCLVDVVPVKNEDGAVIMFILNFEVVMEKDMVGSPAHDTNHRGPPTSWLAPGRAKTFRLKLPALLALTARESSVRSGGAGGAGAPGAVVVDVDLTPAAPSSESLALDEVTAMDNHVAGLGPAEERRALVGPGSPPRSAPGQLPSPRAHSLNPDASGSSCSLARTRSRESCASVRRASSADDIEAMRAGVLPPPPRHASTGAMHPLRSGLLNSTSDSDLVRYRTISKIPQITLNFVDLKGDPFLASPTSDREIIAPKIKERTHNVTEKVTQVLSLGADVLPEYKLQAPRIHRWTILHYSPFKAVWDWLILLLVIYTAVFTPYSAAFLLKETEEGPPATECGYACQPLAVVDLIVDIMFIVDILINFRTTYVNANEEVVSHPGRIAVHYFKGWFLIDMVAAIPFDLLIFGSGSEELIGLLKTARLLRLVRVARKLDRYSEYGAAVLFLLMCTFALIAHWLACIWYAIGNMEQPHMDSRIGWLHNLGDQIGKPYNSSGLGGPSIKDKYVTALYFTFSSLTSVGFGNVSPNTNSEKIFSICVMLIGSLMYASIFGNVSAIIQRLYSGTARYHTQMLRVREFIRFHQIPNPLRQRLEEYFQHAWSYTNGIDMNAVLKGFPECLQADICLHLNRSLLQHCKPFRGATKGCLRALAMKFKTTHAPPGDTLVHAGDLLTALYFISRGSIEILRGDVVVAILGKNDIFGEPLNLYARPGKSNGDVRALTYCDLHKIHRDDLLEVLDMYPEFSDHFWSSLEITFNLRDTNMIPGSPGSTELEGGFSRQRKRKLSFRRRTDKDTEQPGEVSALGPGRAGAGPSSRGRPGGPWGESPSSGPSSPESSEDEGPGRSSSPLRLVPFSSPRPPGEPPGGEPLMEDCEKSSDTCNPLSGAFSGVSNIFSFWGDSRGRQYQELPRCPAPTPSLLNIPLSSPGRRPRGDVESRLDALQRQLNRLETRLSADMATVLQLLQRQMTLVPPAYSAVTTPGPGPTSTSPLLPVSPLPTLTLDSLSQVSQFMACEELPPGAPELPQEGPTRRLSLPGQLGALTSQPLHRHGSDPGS
row,Compound,"hERG current change (%, negative = inhibition) at 10uM"
1,O=C(NC1CCCCC1)C(c1cccnc1)N(C(=O)c1ccc(Cl)nc1)C1CCCCC1 (centres unmarked),4.19%
2,Cc1cccc(C)c1N(CC(=O)N1CCOCC1)S(C)(=O)=O,18.6%
3,Cc1cc(C)c(O)c(-c2n[nH]c3c2C(c2cccc(O)c2)N(Cc2ccco2)C3=O)c1 (centres unmarked),6.53%
4,C=C1CCN(c2ccc(C(=O)NCc3ccccc3)cc2[N+](=O)[O-])CC1,-10.5%
5,Cc1ccc(S(=O)(=O)c2nc(-c3ccccc3Cl)oc2N(C)C)cc1,4.66%
6,COCCNC(=O)Nc1ccc2c(c1)N(C)C(=O)CS2,11.5%
7,O=C(NCc1ccccc1Cl)c1ccc(CS(=O)(=O)c2ccccc2)o1,-7.35%
8,CN1OC2C(=O)N(c3ccccc3)C(=O)C2C1c1ccc(F)cc1 (centres unmarked),5.57%
9,CC(NC(=O)CCN1C(=O)c2ccccc2C1=O)c1ccc2c(c1)CCCC2 (centres unmarked),-16%
10,Cc1cccc(N2CCN(C(=O)CCNS(=O)(=O)c3ccc4c(c3)oc(=O)n4C)CC2C)c1 (centres unmarked),-19.4%
11,CS(=O)(=O)N1CCN(c2ccc(NC(=S)NC(=O)c3ccc4c(c3)OCO4)cc2)CC1,18.2%
12,COc1ccccc1N(C)S(=O)(=O)c1ccc(Cl)c(C(=O)Nc2ccncc2)c1,-73.4%
13,CCOP(=O)(/C(C#N)=C(\C)O)c1ccccc1 (centres unmarked),2.56%
14,COc1cc(OC)c(OC)cc1CN1CCN(C(=O)c2cccc3ccccc23)CC1.O=C(O)C(=O)O,4.94%
15,COc1ccc(/C=C/c2nc3sc4c(c3c(=O)o2)CCC4)cc1,4.28%
16,COCCN(CC(=O)Nc1cccc(C)c1)S(=O)(=O)c1ccc(S(=O)(=O)N2CCCC2)cc1,-0.348%
17,O=C1CC(O)(C(F)F)Oc2ccc3ccccc3c21 (centres unmarked),1.87%
18,Cn1cccc1/C=N/NC(=O)C(O)c1ccccc1 (centres unmarked),8.94%
19,CC(c1cccnc1)N(C(=O)Nc1ccccc1)C1CCCCC1 (centres unmarked),-19.6%
20,O=C(CCN1C(=O)NC2(CCCC2)C1=O)Nc1cccc(S(=O)(=O)N2CCOCC2)c1,10.7%
21,O=C(CSc1ccc(-c2ccncc2)nn1)c1ccccc1,-5.29%
22,CC(C)(C)[C@]1(O)C[C@@H]2OC(=O)C[C@@]23C(=O)O[C@@H]2OC(=O)[C@H](O)[C@]213,17.7%

row,Compound,"hERG current change (%, negative = inhibition) at 10uM"
1,CCN(c1ccc(NC(=O)COC(=O)c2ccc(C)c(S(=O)(=O)N3CCOCC3)c2)cc1)C(C)C,5.63%
2,NCCCC[C@H]1CNC(=S)N1CCCCC1CCCCC1,-10.6%
3,COc1ccc(-c2nc(C#N)c(NCCCN(C)C)o2)cc1OC,-8.28%
4,Cc1cc(C)cc(N(CC(=O)NCC2CCCO2)C(=O)CCC(=O)Nc2nccs2)c1 (centres unmarked),12.8%
5,CN1C(=O)c2ccccc2N(C)C1c1ccccc1Cl (centres unmarked),1.65%
6,O=C(O)C[C@H]1c2cc(C(F)(F)F)ccc2S(=O)(=O)N1C1CCN(Cc2ccccc2)CC1,3.74%
7,O=[N+]([O-])c1ccccc1N=Nc1ccc(O)cc1,6.61%
8,O=C(NCC(c1cccs1)N1CCOCC1)c1cc([N+](=O)[O-])ccc1Cl (centres unmarked),-20.5%
9,CCOc1cccc(C(=O)NNC(=O)CCC(=O)O)c1,15.2%
10,CCO[C@H]1OC(C(=O)O)=C[C@@H](C)[C@@H]1CCCO,12.6%
11,Cc1cccn2cc(CSc3ccccc3N)nc12,-20.5%
12,CCCCC(=O)NC(=S)Nc1ccccc1C(=O)Nc1ccccc1,-7.87%
13,O=C(Cn1nnc2ccccc21)c1ccc(Br)cc1,-2.12%
14,COc1cc(OC)c(OC)cc1CNC(C)C(O)c1ccccc1.Cl (centres unmarked),12.6%
15,COc1cccc(C2C3=C(N=c4s/c(=C\c5ccc(OCC(=O)O)cc5)c(=O)n42)c2ccccc2CC3)c1 (centres unmarked),0.67%
16,Cc1ccc(O)c(C(=O)c2cnn(-c3ccc(S(=O)(=O)N4CCOCC4)cc3[N+](=O)[O-])c2)c1,5.09%
17,Cc1ccc(SCC(=O)NCC2COc3ccccc3O2)cc1 (centres unmarked),-26.9%
18,CCN(CC)S(=O)(=O)c1cccc(-c2nnc(SCCCC(=O)c3ccc(F)cc3)o2)c1,-36.1%
19,O=[N+]([O-])c1ccc(N2CCNCC2)cc1NCc1ccco1,-28.2%
20,O=C(Nc1ccc(N2CCOCC2)cc1)c1ccc([N+](=O)[O-])o1,7.94%
21,CN(CCC1CCOCC1)C(=O)CC1C(=O)NCCN1Cc1ccoc1 (centres unmarked),13.2%
22,CCOc1ccc(NC(=O)CSc2nnc(Cc3cccn3C)n2-c2ccc(F)cc2)cc1,-23.5%

row,Compound,"hERG current change (%, negative = inhibition) at 10uM"
1,Cc1ccc(SCCNC(=O)c2ccc(C)c([N+](=O)[O-])c2)cc1,-20.2%
2,CCCCCCCCCCSc1n[nH]c(NC(C)=O)n1,5.05%
3,Nc1cccc(-c2cn3cccnc3n2)c1,34.5%
4,CCN1CCN(S(=O)(=O)c2ccc(OC)c(NC(=O)c3ccccc3)c2)CC1,-49%
5,O=C(NNc1cccc(Cl)n1)Nc1cccc(C(F)(F)F)c1,5.71%
6,CC(C)CNC(=S)NNC(=O)c1ccc2c(c1)OCO2,3.43%
7,COc1ccc(NC(=O)N2CCCC2C(=O)Nc2ccc(C)cc2)cc1 (centres unmarked),-11.7%
8,C=CCn1c(SCC(=O)Nc2ncc(Cc3cc(Cl)ccc3Cl)s2)nnc1-c1ccncc1,7.9%
9,COC(=O)C1=C(C)NC(=O)NC1c1ccc([N+](=O)[O-])o1 (centres unmarked),21.2%
10,O=C(NCCc1cccc(F)c1)/C(=C/c1cccnc1)NC(=O)c1ccccc1,-36.4%
11,Cc1ccccc1/C=N/Nc1nc2ccccc2c(=O)n1O,14.8%
12,O=C(CCCn1c(=O)[nH]c2ccsc2c1=O)N1CCCCC1,13.2%
13,Cc1cc(C(=O)N2CCC(Cc3ccccc3)CC2)ccc1[N+](=O)[O-],-38.5%
14,COc1cccc2sc(/N=C/N(C)C)nc12,16.4%
15,COc1cccc(NC(=O)CSC(N)=O)c1,12.4%
16,BrC(=C\c1ccccc1)/C=N/Nc1nc(N2CCOCC2)nc(N2CCOCC2)n1,-42%
17,NNS(=O)(=O)c1ccc(Cc2ncc(C(F)(F)F)cc2Cl)s1,2.61%
18,O=C(Nc1ccc(F)c(Cl)c1)c1cncs1,16.4%
19,O=C(O)CCCCCCCCCCP(=O)(c1ccccc1)c1ccccc1,-7.05%
20,CCOC(=O)C[N+]1(C)CCN(C(C)=O)CC1.[Br-],6.35%
21,O=S(=O)(Nc1cc(S(=O)(=O)N2CCOCC2)ccc1O)c1ccc2c(c1)OCCCO2,9.89%
22,O=S(=O)(/N=C(/Nc1ccccn1)c1ccccc1)c1ccc(F)cc1,-12.3%

row,Compound,"hERG current change (%, negative = inhibition) at 10uM"
1,COc1ccc(-c2nc3ccccc3n2Cc2ccccc2)cc1,-30.7%
2,COc1cccc(C(=O)OCCN2CCCCC2)c1.Cl,-14.7%
3,O=C(O)C(F)(F)F.c1cn2c(NC3CCCCC3)c(-c3ccc(SC4CCCCC4)cc3)nc2cn1,9.49%
4,CC1=C(C(=O)Nc2cc(C(=O)N3CCN(c4cccc(C)c4C)CC3)ccc2C)SCCO1,-34.5%
5,CCC(=O)N(Cc1ccco1)c1nc(-c2cc(OC)ccc2OC)cs1,1.45%
6,CC(C)(CC(=O)N1CCN(c2ccc(Cl)cc2)CC1)CC1=NS(=O)(=O)c2ccccc2N1,-61.1%
7,CC1(C)C=Cc2c(ccc3c2OC[C@@H](c2ccc(O)cc2O)C3)O1,11%
8,O=C(CCN1C(=O)c2ccccc2S1(=O)=O)Nc1nc2c(s1)CCCC2,-28%
9,COc1cccc(NC(=O)c2c([N+](=O)[O-])cnn2C)c1,17.4%
10,COC(=O)CC1C(=O)NCCN1C(=S)NC(=O)c1sc2ccccc2c1Cl (centres unmarked),0.408%
11,COc1ccc(CCn2cnc3c([nH]c4ccccc43)c2=O)cc1,7.96%
12,CC(C)(C)c1ccc(C(=O)NCC(=O)OCC(=O)Nc2ccccc2[N+](=O)[O-])cc1,-21%
13,COc1ccc(CN2C(=NC(=O)C3CCCO3)SC3CS(=O)(=O)CC32)cc1 (centres unmarked),-15.8%
14,Cc1ccc(C(=O)NCC(=O)OCC(=O)N(CC(C)C)c2c(N)n(Cc3ccccc3)c(=O)[nH]c2=O)cc1,4.38%
15,Cc1c(CN2CCC(CO)(CC3CCCCO3)CC2)cnn1C (centres unmarked),29%
16,Cc1ccc(CN2CCCC(CO)(Cc3ccccc3C)C2)s1 (centres unmarked),-37.7%
17,Cc1c(NS(=O)(=O)c2ccc(C(=O)NCc3ccccc3)cc2)c(=O)n(-c2ccccc2)n1C,8.77%
18,Cc1ccsc1-c1nc(CN(C)C(C2CC2)C2CC2)c(C)o1,-76%
19,Cc1[nH]n(-c2cccc3ccccc23)c(=O)c1/C=N/c1sc2c(c1C#N)CCC2,7.54%
20,COc1ccc(CCNC(=O)COC(=O)c2cc(OC)c(OC)cc2OC)cc1,2.31%
